Assay results reported in the supplement of paper PMC12217912.
The other results are listed elsewhere or left out. The full chains were built here from the parent and the listed change. Inactive controls read about 0.05.

B1: TEV protease; numbered along this chain (parent)
chain: MGESLFKGPRDYNPISSSICHLTNESDGHTTSLYGIGFGPFIITNKHLFRRNNGTLVVQSLHGVFKVKDTTTLQQHLVDGRDMIIIRMPKDFPPFPQKLKFREPQREERICLVTTNFQTKSMSSMVSDTSCTFPSGDGIFWKHWIQTKDGQCGSPLVSTRDGFIVGIHSASNFTNTNNYFTSVPKNFMELLTNQEAQQWVSGWRLNADSVLWGGHKVFMVKPEEPFQPVKEATQL

Variants of: B1
Test: raw area under fraction-flipped curve 0-4 h after induction (AUC4h, not background-subtracted), DNA-recorder readout of cleavage of the substrate (dimensionless); higher = more cleavage of the substrate by the protease variant
Conditions: temperature: 34 °C; time window: 0-4 h after rhamnose induction
Description: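 In vivo DNA recorder in E. coli TOP10(DE3) ΔrhaA at 34 °C. Each TEVp single-site mutant (parent TEVp 0) is paired with a single-site variant of the 7-mer TEVs (canonical ENLYFQ|S). The substrate sits between flexible linkers in a Bxb1-sfGFP-TEVs-SsrA fusion, so cleavage stabilises Bxb1 and speeds flipping of a recombination array, read by NGS. The value is the raw area under the fraction-flipped curve over 0-4 h after rhamnose induction (AUC4h), with ≥20 reads per time point. It is not background-subtracted; inactive controls average about 0.047.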
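Note: Bxb1 expression induced with 0.2% (w/v) L-rhamnose at OD600 near 0.5, cultures sampled hourly, flipped fraction per protease–substrate barcode pair counted by paired-end Illumina sequencing.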

MGESLFKGPRDYNPISSSICHLTNESWGHTTSLYGIGFGPFIITNKHLFRRNNGTLVVQSLHGVFKVKDTTTLQQHLVDGRDMIIIRMPKDFPPFPQKLKFREPQREERICLVTTNFQTKSMSSMVSDTSCTFPSGDGIFWKHWIQTKDGQCGSPLVSTRDGFIVGIHSASNFTNTNNYFTSVPKNFMELLTNQEAQQWVSGWRLNADSVLWGGHKVFMVKPEEPFQPVKEATQL [D27W]
area with substrate ENCYFQS: 0.0765
area with substrate ENDYFQS: 0.0515
area with substrate ENEYFQS: 0.07
area with substrate ENFYFQS: 0.0551
area with substrate ENPYFQS: 0.0635
area with substrate ENQYFQS: 0.0532
area with substrate ENRYFQS: 0.068
area with substrate ENSYFQS: 0.0537
area with substrate ENVYFQS: 0.076
area with substrate ENWYFQS: 0.0594
area with substrate ENYYFQS: 0.059

MGESLFKGPRDYNPISSSICHLTNESDGHTTSLYGIGFGPFIITNTHLFRRNNGTLVVQSLHGVFKVKDTTTLQQHLVDGRDMIIIRMPKDFPPFPQKLKFREPQREERICLVTTNFQTKSMSSMVSDTSCTFPSGDGIFWKHWIQTKDGQCGSPLVSTRDGFIVGIHSASNFTNTNNYFTSVPKNFMELLTNQEAQQWVSGWRLNADSVLWGGHKVFMVKPEEPFQPVKEATQL [K46T]
area with substrate ENCYFQS: 0.0583
area with substrate ENDYFQS: 0.0458
area with substrate ENEYFQS: 0.05
area with substrate ENFYFQS: 0.0765
area with substrate ENGYFQS: 0.0676
area with substrate ENHYFQS: 0.0491
area with substrate ENKYFQS: 0.0581
area with substrate ENNYFQS: 0.0564
area with substrate ENQYFQS: 0.0653
area with substrate ENRYFQS: 0.047
area with substrate ENSYFQS: 0.0584
area with substrate ENTYFQS: 0.0492
area with substrate ENVYFQS: 0.0752
area with substrate ENYYFQS: 0.071

MGESLFKGPRDYNPISSSICHLTNESDGHTTSLYGIGFGPFIITNKHLFRRNNQTLVVQSLHGVFKVKDTTTLQQHLVDGRDMIIIRMPKDFPPFPQKLKFREPQREERICLVTTNFQTKSMSSMVSDTSCTFPSGDGIFWKHWIQTKDGQCGSPLVSTRDGFIVGIHSASNFTNTNNYFTSVPKNFMELLTNQEAQQWVSGWRLNADSVLWGGHKVFMVKPEEPFQPVKEATQL [G54Q]
area with substrate ENCYFQS: 0.0585
area with substrate ENDYFQS: 0.0407
area with substrate ENEYFQS: 0.0542
area with substrate ENFYFQS: 0.0493
area with substrate ENGYFQS: 0.062
area with substrate ENHYFQS: 0.0457
area with substrate ENKYFQS: 0.0429
area with substrate ENNYFQS: 0.0664
area with substrate ENPYFQS: 0.0629
area with substrate ENQYFQS: 0.0586
area with substrate ENRYFQS: 0.0595
area with substrate ENSYFQS: 0.0628
area with substrate ENTYFQS: 0.0518
area with substrate ENVYFQS: 0.0589
area with substrate ENWYFQS: 0.0559
area with substrate ENYYFQS: 0.0465

MGESLFKGPRDYNPISSSICHLTNESDGHTTSLYGIGFGPFIITNKHLFRRNNGTLVVQHLHGVFKVKDTTTLQQHLVDGRDMIIIRMPKDFPPFPQKLKFREPQREERICLVTTNFQTKSMSSMVSDTSCTFPSGDGIFWKHWIQTKDGQCGSPLVSTRDGFIVGIHSASNFTNTNNYFTSVPKNFMELLTNQEAQQWVSGWRLNADSVLWGGHKVFMVKPEEPFQPVKEATQL [S60H]
area with substrate ENCYFQS: 0.0546
area with substrate ENDYFQS: 0.0529
area with substrate ENEYFQS: 0.0593
area with substrate ENFYFQS: 0.0327
area with substrate ENGYFQS: 0.0708
area with substrate ENHYFQS: 0.0791
area with substrate ENIYFQS: 0.11
area with substrate ENKYFQS: 0.0563
area with substrate ENNYFQS: 0.063
area with substrate ENQYFQS: 0.0756
area with substrate ENRYFQS: 0.0576
area with substrate ENSYFQS: 0.0625
area with substrate ENTYFQS: 0.0565
area with substrate ENVYFQS: 0.0908
area with substrate ENWYFQS: 0.0411

MGESLFKGPRDYNPISSSICHLTNESDGHTTSLYGIGFGPFIITNKHLFRRNNGTLVVQSLAGVFKVKDTTTLQQHLVDGRDMIIIRMPKDFPPFPQKLKFREPQREERICLVTTNFQTKSMSSMVSDTSCTFPSGDGIFWKHWIQTKDGQCGSPLVSTRDGFIVGIHSASNFTNTNNYFTSVPKNFMELLTNQEAQQWVSGWRLNADSVLWGGHKVFMVKPEEPFQPVKEATQL [H62A]
area with substrate ENCYFQS: 0.0673
area with substrate ENDYFQS: 0.076
area with substrate ENEYFQS: 0.075
area with substrate ENFYFQS: 0.0571
area with substrate ENHYFQS: 0.0591
area with substrate ENIYFQS: 0.0951
area with substrate ENKYFQS: 0.0585
area with substrate ENMYFQS: 0.101
area with substrate ENPYFQS: 0.0835
area with substrate ENQYFQS: 0.0604
area with substrate ENRYFQS: 0.0636
area with substrate ENSYFQS: 0.0595
area with substrate ENTYFQS: 0.0664

MGESLFKGPRDYNPISSSICHLTNESDGHTTSLYGIGFGPFIITNKHLFRRNNGTLVVQSLHGVLKVKDTTTLQQHLVDGRDMIIIRMPKDFPPFPQKLKFREPQREERICLVTTNFQTKSMSSMVSDTSCTFPSGDGIFWKHWIQTKDGQCGSPLVSTRDGFIVGIHSASNFTNTNNYFTSVPKNFMELLTNQEAQQWVSGWRLNADSVLWGGHKVFMVKPEEPFQPVKEATQL [F65L]
area with substrate ENCYFQS: 0.0645
area with substrate ENDYFQS: 0.0607
area with substrate ENEYFQS: 0.0774
area with substrate ENFYFQS: 0.0676
area with substrate ENGYFQS: 0.0603
area with substrate ENHYFQS: 0.0459
area with substrate ENKYFQS: 0.05
area with substrate ENNYFQS: 0.0692
area with substrate ENQYFQS: 0.058
area with substrate ENRYFQS: 0.0646
area with substrate ENSYFQS: 0.0389
area with substrate ENVYFQS: 0.0249

MGESLFKGPRDYNPISSSICHLTNESDGHTTSLYGIGFGPFIITNKHLFRRNNGTLVVQSLHGVFKVKDTTTLQQRLVDGRDMIIIRMPKDFPPFPQKLKFREPQREERICLVTTNFQTKSMSSMVSDTSCTFPSGDGIFWKHWIQTKDGQCGSPLVSTRDGFIVGIHSASNFTNTNNYFTSVPKNFMELLTNQEAQQWVSGWRLNADSVLWGGHKVFMVKPEEPFQPVKEATQL [H76R]
area with substrate ENCYFQS: 0.0703
area with substrate ENDYFQS: 0.0537
area with substrate ENEYFQS: 0.0516
area with substrate ENFYFQS: 0.0535
area with substrate ENIYFQS: 0.0691
area with substrate ENKYFQS: 0.0597
area with substrate ENMYFQS: 0.0678
area with substrate ENNYFQS: 0.0762
area with substrate ENPYFQS: 0.0597
area with substrate ENQYFQS: 0.0696
area with substrate ENSYFQS: 0.0688
area with substrate ENTYFQS: 0.0702
area with substrate ENVYFQS: 0.0644
area with substrate ENWYFQS: 0.0459
area with substrate ENYYFQS: 0.0694

MGESLFKGPRDYNPISSSICHLTNESDGHTTSLYGIGFGPFIITNKHLFRRNNGTLVVQSLHGVFKVKDTTTLQQHYVDGRDMIIIRMPKDFPPFPQKLKFREPQREERICLVTTNFQTKSMSSMVSDTSCTFPSGDGIFWKHWIQTKDGQCGSPLVSTRDGFIVGIHSASNFTNTNNYFTSVPKNFMELLTNQEAQQWVSGWRLNADSVLWGGHKVFMVKPEEPFQPVKEATQL [L77Y]
area with substrate ENCYFQS: 0.0599
area with substrate ENDYFQS: 0.0832
area with substrate ENEYFQS: 0.0476
area with substrate ENFYFQS: 0.0631
area with substrate ENGYFQS: 0.0593
area with substrate ENHYFQS: 0.0587
area with substrate ENIYFQS: 0.0581
area with substrate ENMYFQS: 0.0398
area with substrate ENNYFQS: 0.0724
area with substrate ENQYFQS: 0.0578
area with substrate ENRYFQS: 0.0406
area with substrate ENSYFQS: 0.0698
area with substrate ENTYFQS: 0.0595
area with substrate ENWYFQS: 0.0051
area with substrate ENYYFQS: 0.0608

MGESLFKGPRDYNPISSSICHLTNESDGHTTSLYGIGFGPFIITNKHLFRRNNGTLVVQSLHGVFKVKDTTTLQQHLVDGRNMIIIRMPKDFPPFPQKLKFREPQREERICLVTTNFQTKSMSSMVSDTSCTFPSGDGIFWKHWIQTKDGQCGSPLVSTRDGFIVGIHSASNFTNTNNYFTSVPKNFMELLTNQEAQQWVSGWRLNADSVLWGGHKVFMVKPEEPFQPVKEATQL [D82N]
area with substrate ENCYFQS: 0.0534
area with substrate ENDYFQS: 0.0694
area with substrate ENEYFQS: 0.0821
area with substrate ENFYFQS: 0.0929
area with substrate ENHYFQS: 0.0728
area with substrate ENIYFQS: 0.0565
area with substrate ENKYFQS: 0.0768
area with substrate ENMYFQS: 0.0586
area with substrate ENNYFQS: 0.05
area with substrate ENPYFQS: 0.0603
area with substrate ENQYFQS: 0.0674
area with substrate ENRYFQS: 0.0643
area with substrate ENSYFQS: 0.0579
area with substrate ENTYFQS: 0.0534
area with substrate ENVYFQS: 0.0687
area with substrate ENWYFQS: 0.0481
